# Source: paper PMC4165372, “Nutritional status modulates box C/D snoRNP biogenesis by regulated subcellular relocalization of the R2TP complex” (Genome Biology, 2014)
# Amino acid sequences for entries named in this document (tags omitted).
# UniProt Q03940: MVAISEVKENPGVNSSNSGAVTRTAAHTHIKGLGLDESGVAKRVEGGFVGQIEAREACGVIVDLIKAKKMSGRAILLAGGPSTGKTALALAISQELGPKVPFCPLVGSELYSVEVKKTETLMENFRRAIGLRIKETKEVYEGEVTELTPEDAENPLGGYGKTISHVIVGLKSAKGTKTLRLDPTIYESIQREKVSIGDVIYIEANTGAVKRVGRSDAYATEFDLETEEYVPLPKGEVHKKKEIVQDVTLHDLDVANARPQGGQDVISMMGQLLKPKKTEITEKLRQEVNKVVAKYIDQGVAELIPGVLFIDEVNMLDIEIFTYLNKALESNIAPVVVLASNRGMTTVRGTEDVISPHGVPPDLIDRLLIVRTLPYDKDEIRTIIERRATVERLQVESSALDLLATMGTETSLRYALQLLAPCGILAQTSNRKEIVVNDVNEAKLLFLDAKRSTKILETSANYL
# UniProt Q12464: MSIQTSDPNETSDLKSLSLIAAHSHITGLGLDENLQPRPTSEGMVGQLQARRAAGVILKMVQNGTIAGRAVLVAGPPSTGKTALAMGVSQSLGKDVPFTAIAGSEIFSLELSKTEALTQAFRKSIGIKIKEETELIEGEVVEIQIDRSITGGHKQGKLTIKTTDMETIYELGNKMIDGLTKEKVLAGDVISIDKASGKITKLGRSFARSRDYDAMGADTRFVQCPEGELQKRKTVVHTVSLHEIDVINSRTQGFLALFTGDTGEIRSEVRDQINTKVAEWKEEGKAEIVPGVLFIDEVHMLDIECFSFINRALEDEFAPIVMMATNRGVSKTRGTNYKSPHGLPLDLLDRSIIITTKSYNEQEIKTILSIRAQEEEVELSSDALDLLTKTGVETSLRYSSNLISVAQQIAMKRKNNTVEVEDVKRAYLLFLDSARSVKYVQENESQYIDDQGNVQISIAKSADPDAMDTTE
# Like-named read-outs stand apart in the source and are kept apart here. Results are given in words; binding and its absence hold for the method and conditions named. Binding seen in cells or lysates may run through a third protein. Some entries that bind do so weakly or less than the wild type. Tags and fused reporters may be left off the sequences shown.
# T1: Nop1-FLAG (S. cerevisiae) (UniProt P15646)
# T1 sequence: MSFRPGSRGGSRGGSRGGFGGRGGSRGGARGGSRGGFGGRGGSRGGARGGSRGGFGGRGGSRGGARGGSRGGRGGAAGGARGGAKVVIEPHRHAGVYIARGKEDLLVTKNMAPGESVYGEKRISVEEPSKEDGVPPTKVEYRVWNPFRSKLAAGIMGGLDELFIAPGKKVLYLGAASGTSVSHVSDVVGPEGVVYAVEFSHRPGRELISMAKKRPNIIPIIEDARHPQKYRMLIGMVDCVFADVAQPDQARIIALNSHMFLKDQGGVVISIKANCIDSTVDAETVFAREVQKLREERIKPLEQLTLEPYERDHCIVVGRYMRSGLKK
# T2: Nop56-FLAG (S. cerevisiae) (UniProt Q12460)
# T2 sequence: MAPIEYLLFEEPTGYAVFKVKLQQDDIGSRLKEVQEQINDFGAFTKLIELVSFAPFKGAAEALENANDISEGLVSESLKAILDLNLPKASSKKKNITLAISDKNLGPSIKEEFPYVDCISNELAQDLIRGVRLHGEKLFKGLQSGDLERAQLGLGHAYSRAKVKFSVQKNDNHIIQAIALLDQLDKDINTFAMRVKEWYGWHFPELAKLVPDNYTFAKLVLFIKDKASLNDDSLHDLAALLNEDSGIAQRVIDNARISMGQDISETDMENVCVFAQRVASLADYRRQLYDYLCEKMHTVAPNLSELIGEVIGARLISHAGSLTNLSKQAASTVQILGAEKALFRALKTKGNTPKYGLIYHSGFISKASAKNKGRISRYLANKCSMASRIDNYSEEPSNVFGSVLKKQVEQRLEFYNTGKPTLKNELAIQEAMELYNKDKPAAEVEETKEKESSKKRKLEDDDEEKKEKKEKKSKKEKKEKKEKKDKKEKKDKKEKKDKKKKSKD
# T3: Snu13-FLAG (S. cerevisiae) (UniProt P39990)
# T3 sequence: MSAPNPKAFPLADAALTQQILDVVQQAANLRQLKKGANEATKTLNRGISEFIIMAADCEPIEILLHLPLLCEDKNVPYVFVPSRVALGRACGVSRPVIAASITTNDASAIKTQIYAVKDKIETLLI
# T4: Nop58(1–511)-FLAG (S. cerevisiae) (UniProt Q12499)
# T4 sequence: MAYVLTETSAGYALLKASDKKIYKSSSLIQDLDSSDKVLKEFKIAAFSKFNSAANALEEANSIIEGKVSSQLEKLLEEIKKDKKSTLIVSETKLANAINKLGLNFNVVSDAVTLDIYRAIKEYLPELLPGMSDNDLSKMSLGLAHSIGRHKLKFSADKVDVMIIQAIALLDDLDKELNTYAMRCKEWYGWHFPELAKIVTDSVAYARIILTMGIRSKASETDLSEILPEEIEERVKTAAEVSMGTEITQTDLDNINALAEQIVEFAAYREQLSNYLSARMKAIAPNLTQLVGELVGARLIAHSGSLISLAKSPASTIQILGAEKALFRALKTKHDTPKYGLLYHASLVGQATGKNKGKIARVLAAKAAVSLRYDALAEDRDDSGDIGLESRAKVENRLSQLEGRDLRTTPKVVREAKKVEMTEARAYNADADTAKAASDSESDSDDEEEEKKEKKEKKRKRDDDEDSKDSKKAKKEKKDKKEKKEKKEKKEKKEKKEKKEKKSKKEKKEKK
# T5: Nop58(285–447)-FLAG (S. cerevisiae) (UniProt Q12499)
# T5 sequence: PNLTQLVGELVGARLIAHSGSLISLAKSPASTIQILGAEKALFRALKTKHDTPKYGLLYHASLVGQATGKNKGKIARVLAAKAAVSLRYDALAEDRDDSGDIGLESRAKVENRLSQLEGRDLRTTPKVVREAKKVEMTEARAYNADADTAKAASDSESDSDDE
# T6: Nop58(285–511)-FLAG (S. cerevisiae) (UniProt Q12499)
# T6 sequence: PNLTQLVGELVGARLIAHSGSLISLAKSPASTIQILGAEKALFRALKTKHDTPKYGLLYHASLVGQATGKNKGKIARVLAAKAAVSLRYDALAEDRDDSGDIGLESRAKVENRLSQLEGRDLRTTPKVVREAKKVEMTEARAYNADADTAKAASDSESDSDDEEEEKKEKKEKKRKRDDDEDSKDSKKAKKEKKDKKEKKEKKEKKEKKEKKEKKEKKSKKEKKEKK
# T7: Nop58(345–447)-FLAG (S. cerevisiae) (UniProt Q12499)
# T7 sequence: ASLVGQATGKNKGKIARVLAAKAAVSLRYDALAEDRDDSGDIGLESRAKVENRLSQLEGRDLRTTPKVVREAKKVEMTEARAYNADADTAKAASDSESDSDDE
# T8: Nop58(345–511)-FLAG (S. cerevisiae) (UniProt Q12499)
# T8 sequence: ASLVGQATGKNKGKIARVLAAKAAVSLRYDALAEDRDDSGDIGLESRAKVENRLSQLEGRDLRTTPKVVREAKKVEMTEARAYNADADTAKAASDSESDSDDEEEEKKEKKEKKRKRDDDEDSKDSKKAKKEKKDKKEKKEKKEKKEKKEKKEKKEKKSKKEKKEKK
# T9: Nop58-FLAG (S. cerevisiae) (UniProt Q12499)
# T9 sequence: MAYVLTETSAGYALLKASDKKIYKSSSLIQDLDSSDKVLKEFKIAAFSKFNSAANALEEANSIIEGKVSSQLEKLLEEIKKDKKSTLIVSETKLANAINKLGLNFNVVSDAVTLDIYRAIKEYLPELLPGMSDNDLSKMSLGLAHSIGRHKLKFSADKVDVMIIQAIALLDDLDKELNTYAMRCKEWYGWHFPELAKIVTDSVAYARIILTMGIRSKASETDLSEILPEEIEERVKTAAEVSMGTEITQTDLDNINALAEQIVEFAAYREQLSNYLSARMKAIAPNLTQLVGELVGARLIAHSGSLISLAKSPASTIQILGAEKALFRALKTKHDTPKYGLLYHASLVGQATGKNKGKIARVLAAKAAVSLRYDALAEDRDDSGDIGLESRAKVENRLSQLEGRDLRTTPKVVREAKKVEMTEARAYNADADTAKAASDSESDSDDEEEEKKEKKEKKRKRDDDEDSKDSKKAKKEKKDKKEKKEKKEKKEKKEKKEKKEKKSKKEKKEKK
# Columns and labels:
# [1] = molecular target: T1, Nop1-FLAG (S. cerevisiae); assay: co-IP; FLAG pulldown: anti-FLAG (M2) beads on soluble lysate of endogenously C-terminal 3xFLAG-tagged yeast strains, log phase; buffer H with 0.1 M KCl, washes with 0.3 or 0.5 M KCl, FLAG peptide elution; Western blot or silver stain; also lysate treated with RNase A or DNase I, pih1Δ or tah1Δ background, rapamycin, Nup53 or Nup53-CΔ overexpression, bead-bound Nop58-FLAG complex with or without 4 mM ATP
# [2] = molecular target: T2, Nop56-FLAG (S. cerevisiae); assay: as above
# [3] = molecular target: T3, Snu13-FLAG (S. cerevisiae); assay: as above
# [4] = molecular target: T4, Nop58(1–511)-FLAG (S. cerevisiae); assay: co-IP; FLAG pulldown: anti-FLAG beads on lysate of yeast overexpressing p416GAL Nop58-FLAG subdomain constructs after galactose induction (6 h, 30°C); Western blot
# [5] = molecular target: T5, Nop58(285–447)-FLAG (S. cerevisiae); assay: as above
# [6] = molecular target: T6, Nop58(285–511)-FLAG (S. cerevisiae); assay: as above
# [7] = molecular target: T7, Nop58(345–447)-FLAG (S. cerevisiae); assay: as above
# [8] = molecular target: T8, Nop58(345–511)-FLAG (S. cerevisiae); assay: as above
# [9] = molecular target: T9, Nop58-FLAG (S. cerevisiae); assay: co-IP; FLAG pulldown: anti-FLAG (M2) beads on soluble lysate of endogenously C-terminal 3xFLAG-tagged yeast strains, log phase; buffer H with 0.1 M KCl, washes with 0.3 or 0.5 M KCl, FLAG peptide elution; Western blot or silver stain; also lysate treated with RNase A or DNase I, pih1Δ or tah1Δ background, rapamycin, Nup53 or Nup53-CΔ overexpression, bead-bound Nop58-FLAG complex with or without 4 mM ATP
# [10] = molecular target: T1, Nop1-FLAG (S. cerevisiae); assay: as above; remark: listed apart in the source
# [11] = molecular target: T2, Nop56-FLAG (S. cerevisiae); assay: as above; remark: listed apart in the source
# [12] = molecular target: T3, Snu13-FLAG (S. cerevisiae); assay: as above; remark: listed apart in the source
Molecule,binding [1],binding [2],binding [3],binding [4],binding [5],binding [6],binding [7],binding [8],binding [9],further results
Rvb1 (from UniProt Q03940 1-463),binds weakly,binds weakly,binds weakly,,,,,,,
Rvb2 (from UniProt Q12464 1-471),binds weakly,binds weakly,binds weakly,,,,,,,
"Snu13 (protein, UniProt P39990 1-126) MSAPNPKAFPLADAALTQQILDVVQQAANLRQLKKGANEATKTLNRGISEFIIMAADCEPIEILLHLPLLCEDKNVPYVFVPSRVALGRACGVSRPVIAASITTNDASAIKTQIYAVKDKIETLLI",,,,binds,no binding,binds,no binding,no binding,binds,
"Nop56 (protein, UniProt Q12460 1-504) MAPIEYLLFEEPTGYAVFKVKLQQDDIGSRLKEVQEQINDFGAFTKLIELVSFAPFKGAAEALENANDISEGLVSESLKAILDLNLPKASSKKKNITLAISDKNLGPSIKEEFPYVDCISNELAQDLIRGVRLHGEKLFKGLQSGDLERAQLGLGHAYSRAKVKFSVQKNDNHIIQAIALLDQLDKDINTFAMRVKEWYGWHFPELAKLVPDNYTFAKLVLFIKDKASLNDDSLHDLAALLNEDSGIAQRVIDNARISMGQDISETDMENVCVFAQRVASLADYRRQLYDYLCEKMHTVAPNLSELIGEVIGARLISHAGSLTNLSKQAASTVQILGAEKALFRALKTKGNTPKYGLIYHSGFISKASAKNKGRISRYLANKCSMASRIDNYSEEPSNVFGSVLKKQVEQRLEFYNTGKPTLKNELAIQEAMELYNKDKPAAEVEETKEKESSKKRKLEDDDEEKKEKKEKKSKKEKKEKKEKKDKKEKKDKKEKKDKKKKSKD",,,,binds,no binding,binds,no binding,no binding,binds,
"Nop1 (protein, UniProt P15646 1-327) MSFRPGSRGGSRGGSRGGFGGRGGSRGGARGGSRGGFGGRGGSRGGARGGSRGGFGGRGGSRGGARGGSRGGRGGAAGGARGGAKVVIEPHRHAGVYIARGKEDLLVTKNMAPGESVYGEKRISVEEPSKEDGVPPTKVEYRVWNPFRSKLAAGIMGGLDELFIAPGKKVLYLGAASGTSVSHVSDVVGPEGVVYAVEFSHRPGRELISMAKKRPNIIPIIEDARHPQKYRMLIGMVDCVFADVAQPDQARIIALNSHMFLKDQGGVVISIKANCIDSTVDAETVFAREVQKLREERIKPLEQLTLEPYERDHCIVVGRYMRSGLKK",,,,,no binding,binds,no binding,no binding,,
"full-length Pih1 (natural protein, S. cerevisiae, UniProt P38768 1-344, looked up, Pih1, S. cerevisiae, 344 amino acids) MADFLLRPIKQRHRNEDKYVSVDAADGSVSKIEPIADFVIKTKLLSANGPEKLQDGRKVFINVCHSPLVPKPEVDFNARIVFPLIIQNEWEIPIITSCYRMDHDKKGQECYVWDCCINSDCSRWICDDIQLREILVEWCLESCEIRDSVVLCRDRIAFPKMKKKGAELPALEVLNDELHQDYKAKMHKIIEEEAGDPMSILRGRNDDGDDNNDPDDGTLPPLFPIENKISGAKIEEIDKNEIAHRNLKQAPAPAPAPHEQQEDVPEYEVKMKRFKGAAYKLRILIENKAPNSKPDRFSPSYNFAENILYINGKLSIPLPRDIVVNAADIKIFHIRKERTLYIYI",,,,,,,,,,binding [10]: no binding; binding [11]: no binding; binding [12]: no binding
